Source: article PMC12820563, “FoxP3 forms a head-to-head dimer in vivo and stabilizes its multimerization on adjacent microsatellites”
The list shows a part of the results.

Biological target: T1, MBP-FoxP1dN (Mus musculus, UniProt P58462 326-579)
T1 sequence: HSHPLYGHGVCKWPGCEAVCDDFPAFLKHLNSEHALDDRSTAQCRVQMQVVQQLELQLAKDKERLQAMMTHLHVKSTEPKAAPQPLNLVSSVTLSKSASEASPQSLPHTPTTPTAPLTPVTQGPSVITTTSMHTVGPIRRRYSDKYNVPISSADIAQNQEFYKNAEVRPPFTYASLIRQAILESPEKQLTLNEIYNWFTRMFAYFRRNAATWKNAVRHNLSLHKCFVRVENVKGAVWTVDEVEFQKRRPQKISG
Experiment: PD-seq (MBP pull-down with sequencing); 20 mM Tris-HCl pH 7.5, 100 mM NaCl, 1.5 mM MgCl2, 0.4 uM protein, 0.1 uM dsDNA library, 30 min, room temperature, amylose pull-down; high values mean tight binding
Settings: protein: recombinant; tags: His6-MBP; chain copies: 2; dsDNA, one strand shown
Summary of the method: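 A degenerate double-stranded DNA library, filled in with Klenow, was added at 0.1 µM to 0.4 µM His6-MBP-tagged mouse FoxP3 or FoxP1 fragment lacking the N-terminus, expressed in E. coli. Incubation lasted 30 min at room temperature in Tris pH 7.5 buffer with NaCl and MgCl2, after which complexes were collected on amylose resin, washed three times, digested with proteinase K to free the DNA, barcoded by PCR and sequenced by Illumina. Binding is the pooled-replicate reads-per-million enrichment of pull-down over input.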

Row | Sequence | binding signal
1 | GATGATTGTTCTCCCAGCTGATGAATTTGAAATGTCGAGTAAACAAATTTTCCTAATCTTTCTGTTCAAGCGCCATCTAC | 0.895 RPM ratio (pull-down/input)
2 | GATGATTGTTCTCCCAGCTGATGAATTAGGAAATTCGAGTAAACAAATTTTCCTAATCTTTCTGTTCAAGCGCCATCTAC | 0.976 RPM ratio (pull-down/input)
3 | GATGATTGTTCTCCCAGCTGATGAATTGATCCCGTCGAGTAAACAAATTTTCCTAATCTTTCTGTTCAAGCGCCATCTAC | 0.885 RPM ratio (pull-down/input)
4 | GATGATTGTTCTCCCAGCTGATGAATTCTAGTCATCGAGTAAACAAATTTTCCTAATCTTTCTGTTCAAGCGCCATCTAC | 0.937 RPM ratio (pull-down/input)
5 | GATGATTGTTCTCCCAGCTGATGAATTGAGTGGTTCGAGTAAACAAATTTTCCTAATCTTTCTGTTCAAGCGCCATCTAC | 0.882 RPM ratio (pull-down/input)
6 | GATGATTGTTCTCCCAGCTGATGAATTATGTTTATCGAGTAAACAAATTTTCCTAATCTTTCTGTTCAAGCGCCATCTAC | 2.99 RPM ratio (pull-down/input)
7 | GATGATTGTTCTCCCAGCTGATGAATTGTGTGTCTCGAGTAAACAAATTTTCCTAATCTTTCTGTTCAAGCGCCATCTAC | 1.26 RPM ratio (pull-down/input)
8 | GATGATTGTTCTCCCAGCTGATGAATTGGGTCAATCGAGTAAACAAATTTTCCTAATCTTTCTGTTCAAGCGCCATCTAC | 0.95 RPM ratio (pull-down/input)
9 | GATGATTGTTCTCCCAGCTGATGAATTTCTGACGTCGAGTAAACAAATTTTCCTAATCTTTCTGTTCAAGCGCCATCTAC | 0.894 RPM ratio (pull-down/input)
10 | GATGATTGTTCTCCCAGCTGATGAATTCTAGTTTTCGAGTAAACAAATTTTCCTAATCTTTCTGTTCAAGCGCCATCTAC | 1.12 RPM ratio (pull-down/input)
11 | GATGATTGTTCTCCCAGCTGATGAATTGGATAAATCGAGTAAACAAATTTTCCTAATCTTTCTGTTCAAGCGCCATCTAC | 1.09 RPM ratio (pull-down/input)
12 | GATGATTGTTCTCCCAGCTGATGAATTGGAACGATCGAGTAAACAAATTTTCCTAATCTTTCTGTTCAAGCGCCATCTAC | 0.889 RPM ratio (pull-down/input)
13 | GATGATTGTTCTCCCAGCTGATGAATTTCTAAAGTCGAGTAAACAAATTTTCCTAATCTTTCTGTTCAAGCGCCATCTAC | 0.831 RPM ratio (pull-down/input)
14 | GATGATTGTTCTCCCAGCTGATGAATTGGCAACATCGAGTAAACAAATTTTCCTAATCTTTCTGTTCAAGCGCCATCTAC | 1.33 RPM ratio (pull-down/input)
15 | GATGATTGTTCTCCCAGCTGATGAATTGTGGCAGTCGAGTAAACAAATTTTCCTAATCTTTCTGTTCAAGCGCCATCTAC | 1.07 RPM ratio (pull-down/input)
16 | GATGATTGTTCTCCCAGCTGATGAATTTTCATCCTCGAGTAAACAAATTTTCCTAATCTTTCTGTTCAAGCGCCATCTAC | 0.875 RPM ratio (pull-down/input)
17 | GATGATTGTTCTCCCAGCTGATGAATTGGATATATCGAGTAAACAAATTTTCCTAATCTTTCTGTTCAAGCGCCATCTAC | 0.988 RPM ratio (pull-down/input)
18 | GATGATTGTTCTCCCAGCTGATGAATTCAGGGCATCGAGTAAACAAATTTTCCTAATCTTTCTGTTCAAGCGCCATCTAC | 0.931 RPM ratio (pull-down/input)
19 | GATGATTGTTCTCCCAGCTGATGAATTAAGAGTGTCGAGTAAACAAATTTTCCTAATCTTTCTGTTCAAGCGCCATCTAC | 0.917 RPM ratio (pull-down/input)
20 | GATGATTGTTCTCCCAGCTGATGAATTCCAGAGGTCGAGTAAACAAATTTTCCTAATCTTTCTGTTCAAGCGCCATCTAC | 0.691 RPM ratio (pull-down/input)

Row | Sequence | binding signal
21 | GATGATTGTTCTCCCAGCTGATGAATTGGGGCCCTCGAGTAAACAAATTTTCCTAATCTTTCTGTTCAAGCGCCATCTAC | 0.808 RPM ratio (pull-down/input)
22 | GATGATTGTTCTCCCAGCTGATGAATTCGATGTATCGAGTAAACAAATTTTCCTAATCTTTCTGTTCAAGCGCCATCTAC | 1.1 RPM ratio (pull-down/input)
23 | GATGATTGTTCTCCCAGCTGATGAATTAGAGCAATCGAGTAAACAAATTTTCCTAATCTTTCTGTTCAAGCGCCATCTAC | 1.11 RPM ratio (pull-down/input)
24 | GATGATTGTTCTCCCAGCTGATGAATTCGAGGAATCGAGTAAACAAATTTTCCTAATCTTTCTGTTCAAGCGCCATCTAC | 0.836 RPM ratio (pull-down/input)
25 | GATGATTGTTCTCCCAGCTGATGAATTCGTGAGATCGAGTAAACAAATTTTCCTAATCTTTCTGTTCAAGCGCCATCTAC | 0.83 RPM ratio (pull-down/input)
26 | GATGATTGTTCTCCCAGCTGATGAATTATAGCAATCGAGTAAACAAATTTTCCTAATCTTTCTGTTCAAGCGCCATCTAC | 1.28 RPM ratio (pull-down/input)
27 | GATGATTGTTCTCCCAGCTGATGAATTCATCTTCTCGAGTAAACAAATTTTCCTAATCTTTCTGTTCAAGCGCCATCTAC | 0.855 RPM ratio (pull-down/input)
28 | GATGATTGTTCTCCCAGCTGATGAATTAAGGATCTCGAGTAAACAAATTTTCCTAATCTTTCTGTTCAAGCGCCATCTAC | 0.796 RPM ratio (pull-down/input)
29 | GATGATTGTTCTCCCAGCTGATGAATTAGTCAGCTCGAGTAAACAAATTTTCCTAATCTTTCTGTTCAAGCGCCATCTAC | 0.934 RPM ratio (pull-down/input)
30 | GATGATTGTTCTCCCAGCTGATGAATTTTGTCGCTCGAGTAAACAAATTTTCCTAATCTTTCTGTTCAAGCGCCATCTAC | 0.92 RPM ratio (pull-down/input)
31 | GATGATTGTTCTCCCAGCTGATGAATTGATACCGTCGAGTAAACAAATTTTCCTAATCTTTCTGTTCAAGCGCCATCTAC | 1.08 RPM ratio (pull-down/input)
32 | GATGATTGTTCTCCCAGCTGATGAATTGTTCTTCTCGAGTAAACAAATTTTCCTAATCTTTCTGTTCAAGCGCCATCTAC | 1.12 RPM ratio (pull-down/input)
33 | GATGATTGTTCTCCCAGCTGATGAATTTCAAAAATCGAGTAAACAAATTTTCCTAATCTTTCTGTTCAAGCGCCATCTAC | 1.15 RPM ratio (pull-down/input)
34 | GATGATTGTTCTCCCAGCTGATGAATTACAAGCGTCGAGTAAACAAATTTTCCTAATCTTTCTGTTCAAGCGCCATCTAC | 1.16 RPM ratio (pull-down/input)
35 | GATGATTGTTCTCCCAGCTGATGAATTTATGGATTCGAGTAAACAAATTTTCCTAATCTTTCTGTTCAAGCGCCATCTAC | 1.15 RPM ratio (pull-down/input)
36 | GATGATTGTTCTCCCAGCTGATGAATTTTTGCCTTCGAGTAAACAAATTTTCCTAATCTTTCTGTTCAAGCGCCATCTAC | 0.978 RPM ratio (pull-down/input)
37 | GATGATTGTTCTCCCAGCTGATGAATTTTGTAGTTCGAGTAAACAAATTTTCCTAATCTTTCTGTTCAAGCGCCATCTAC | 1.35 RPM ratio (pull-down/input)
38 | GATGATTGTTCTCCCAGCTGATGAATTGAGCCTCTCGAGTAAACAAATTTTCCTAATCTTTCTGTTCAAGCGCCATCTAC | 0.821 RPM ratio (pull-down/input)
39 | GATGATTGTTCTCCCAGCTGATGAATTGTCTGAGTCGAGTAAACAAATTTTCCTAATCTTTCTGTTCAAGCGCCATCTAC | 0.967 RPM ratio (pull-down/input)
40 | GATGATTGTTCTCCCAGCTGATGAATTACCTTGCTCGAGTAAACAAATTTTCCTAATCTTTCTGTTCAAGCGCCATCTAC | 0.985 RPM ratio (pull-down/input)
